Assay results: PubChem BioAssay AID1030 (National Center for Advancing Translational Sciences (NCATS), 2008)
About 16,000 (7.3%) of roughly 220,000 compounds were called active. Inconclusive results, whose numbers are uncertain, are shown with a selection of clear calls. The call rests on the fitted dose curve; in most records, active means well fitted inhibition curve with a large enough effect (not every such curve was filed as active); inconclusive means small, poorly fitted or top-dose-only effect, or another doubt; inactive means no such curve, though single readings can be large or run the other way. Potencies of inconclusive entries are left out as doubtful fits.

molecular target: Aldehyde dehydrogenase 1A1 (Homo sapiens) (UniProt P00352); test: qHTS Assay for Inhibitors of Aldehyde Dehydrogenase 1 (ALDH1A1); conditions: Purified ALDH1A1, NADH fluorescence, propionaldehyde substrate; series mostly up to 75.3 µM;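 on activity, negative = inhibition: plate controls were no enzyme wells and a reference inhibitor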
Chain of UniProt P00352 (P00352 whole entry, looked up): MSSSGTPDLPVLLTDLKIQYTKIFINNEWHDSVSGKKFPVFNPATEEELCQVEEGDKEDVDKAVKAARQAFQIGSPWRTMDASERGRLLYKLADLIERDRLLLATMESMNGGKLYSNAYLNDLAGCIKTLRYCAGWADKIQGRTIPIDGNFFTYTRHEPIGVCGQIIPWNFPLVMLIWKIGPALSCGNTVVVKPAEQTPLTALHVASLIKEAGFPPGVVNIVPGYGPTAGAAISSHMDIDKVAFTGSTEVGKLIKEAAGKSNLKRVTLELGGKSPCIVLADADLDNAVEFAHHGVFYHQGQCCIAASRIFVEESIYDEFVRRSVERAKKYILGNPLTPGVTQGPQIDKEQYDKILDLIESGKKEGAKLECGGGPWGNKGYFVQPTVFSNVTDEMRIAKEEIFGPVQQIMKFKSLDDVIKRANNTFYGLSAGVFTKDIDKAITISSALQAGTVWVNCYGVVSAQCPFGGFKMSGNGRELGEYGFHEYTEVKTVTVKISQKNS
Potency means the concentration at half of the fitted maximal effect; tags describe the fitted curve by direction and shape.

| SMILES | Potency | activity, negative = inhibition |
| --- | --- | --- |
| CCN(CC)S(=O)(=O)c1cccc(C(=O)N/N=C/c2cc(OC)c(O)c(OC)c2)c1 | inactive |  |
| O=C(OC1CCCCC1=O)c1ccc(S(=O)(=O)Nc2ccccc2)cc1 (stereo not drawn) | inconclusive [inhibitor, single point] |  |
| Cc1ccc(-c2[nH]ncc2/C=N/n2c(COc3ccccc3C)nc3ccccc3c2=O)cc1 | inconclusive [inhibitor, single point] |  |
| CCN(CC)CCCN1C(=O)C(O)=C(C(=O)c2sc(C)nc2C)C1c1ccc(C)o1 (stereo not drawn) | inconclusive [inhibitor, single point] |  |
| CCOC(=O)CSc1c(-c2ccccc2)c2cc(Cl)ccc2[nH]c1=O | inconclusive [inhibitor, single point] |  |
| Cc1ccc(OCC(O)Cn2c(N3CCOCC3)nc3c2c(=O)[nH]c(=O)n3C)cc1 (stereo not drawn) | inactive |  |
| O=C(NC(=S)NCC1CCCO1)c1ccc(Cl)cc1 (stereo not drawn) | inconclusive [inhibitor, single point] |  |
| O=C(CN1CCN(c2ccc(O)cc2)CC1)NC(c1ccccc1)c1ccccc1 | active: 12.6 µM |  |
| CCCCn1nc2cc(C(=O)NCc3cc(C(F)(F)F)cc(C(F)(F)F)c3)ccc2c1OC | inconclusive [inhibitor, partial curve] |  |
| COc1cc2nc(N3CCNCC3)nc(N)c2cc1OC | inconclusive [inhibitor, partial curve] |  |
| COCCCNC(=O)CCc1ccc(S(=O)(=O)Nc2ccc(C)cc2)cc1 | inconclusive [inhibitor, partial curve] |  |
| OC/C(Br)=C(\Br)CO | inactive |  |
| Cc1ccc(-c2ccc(CO)o2)cc1N | inconclusive [inhibitor, partial curve] |  |
| CSc1ccccc1NC(=O)CN(C)C(C)C(=O)Nc1ccc(C#N)cc1 (stereo not drawn) | inactive |  |
| O=C(CCNc1ccc(Cc2ccncc2)cc1)c1ccc([N+](=O)[O-])cc1 | active: 0.112 µM |  |
| NC(=O)c1ccccc1NC(=O)/C=C/C(=O)O | inconclusive [inhibitor, partial curve] |  |
| OC(CN1CCNCC1)Cn1c2ccc(Br)cc2c2cc(Br)ccc21 (stereo not drawn) | inactive |  |
| CCCc1nc(SCC(=O)Nc2ccc(N3CCOCC3)cc2)c2ccccc2n1 | inconclusive [inhibitor, single point] |  |
| O=C(O)c1ccccc1C(=O)c1ccc(N2CCCC2)c([N+](=O)[O-])c1 | inactive |  |
| CCC(=O)c1ccccc1OCCCN1C(=O)NC(C)(C)C1=O | active: 10 µM |  |
| O=C1CCC(=O)N1c1nc2n(n1)C(c1ccccc1)C=C(c1ccc(Br)cc1)N2 (stereo not drawn) | inconclusive [inhibitor, partial curve] |  |
| COc1ccc(C2=NN(C(=O)c3cccs3)C(c3ccccc3OC)C2)cc1OC (stereo not drawn) | inconclusive [inhibitor, single point] |  |
| COc1ccc(NC(=S)Nc2ccc(N(C)C(C)=O)cc2)cc1 | inconclusive [inhibitor, single point] |  |
| CC(NS(=O)(=O)c1ccc(Cl)cc1)C(=O)NCCC1=CCCCC1 (stereo not drawn) | inconclusive [inhibitor, single point] |  |
| CC(CC(=O)O)(CC(=O)O)C(=O)O |  | inactive: 2.63% [at 13.5 µM] |
| O=C(Nc1c(C(=O)Nc2cccc(F)c2)oc2ccccc12)c1ccc2c(c1)OCO2 | inconclusive [inhibitor, single point] |  |
| CN(Cc1cn(-c2ccccc2)nc1-c1cc2ccccc2o1)C(=O)CCC(=O)O | inconclusive [inhibitor, single point] |  |
| Cn1c2ccc(F)cc2c2ncn(CC3CCCO3)c(=O)c21 (stereo not drawn) | inconclusive [inhibitor, partial curve] |  |
